Experiments:
NCI-H1373 cells = assay: Lung cancer NCI-H1373 in vivo model; parameters: species or system Balb/c nude mice; conditions: 10 mg/kg; for tumor growth: once weekly for 2 doses (days 8 and 15), compared to hIgG1-MMAE control group; for P (therapeutic effect): NCI-H1373 model
Procedure: Lung cancer NCI-H1373 in vivo model: 5x10^6 NCI-H1373 cells were inoculated onto the backs of 6-week-old female Balb/c nude mice. On day 8, when the tumor volume reached ~200 mm^3, the animals were randomly grouped, with 10 tumors per group. Dosing was performed once weekly for a total of 2 doses (on days 8 and 15).

[1] = Pharmacokinetic detection in mice (ELISA of conjugate in serum); type: in vivo, Balb/c mice; conditions: mice, 1 mg/kg intravenous administration
Procedure: (§1) Serum Sample Collection: HER2-NDC 1 mg/kg 1-G07-GGFG-Dxd and 1 mg/kg 1-G07-LP5 were administered via tail vein injection to 8-week-old female Balb/c mice. Approximately 100 µL of blood was collected from the orbit at time points 0 min, 5 min, 30 min, 4 h, 8 h, 24 h, 48 h, 72 h, 96 h, 120 h, 168 h, and 192 h post-adminsteration. The blood was left at room temperature for 30 min, then placed at 4°C for 3-4 h, and centrifuged at 1500 rpm for 15 min to collect the upper serum. ELISA detection of antibody conjugate concentration: The anti-Dxd antibody (Abmax Biotechnology, Cat#05-0191-L, whose affinity for LP5 is similar to that for Dxd) was diluted to 2.5 µg/mL with coating buffer and coated onto ELISA plates, 100 µL/well. The plates were sealed and incubated at 4°C overnight. Unbound antigen was removed, and blocking buffer (3% BSA in PBS) was added, 200 µL/well, for blocking at room temperature for 2 h. After the blocking solution was removed, the 3-fold serially diluted test serum samples and 3-fold serially diluted standard samples (starting from 333.33 ng/mL) were added, 100 µL/well, and incubated at room temperature for 2 h. Unbound antibodies were removed, and HRP-labeled secondary antibody diluted 1:8000 was added, 100 µL/well, and incubated at room temperature for 1 h. After removing unbound secondary antibody, TMB substrate solution was added, 150 µL/well, for color development at room temperature in the dark for about 5 min. ELISA stop solution was added, 50 µL/well, to terminate the color reaction. The OD value at 450 nm was measured, and the drug concentration in the serum was analyzed and calculated. The drug concentrations in the serum at different time points were input into Phoenix software, and a non-compartmental model was used to analyze the drug concentration-time related parameters.
Similarly, TF-NDC 1 mg/kg FD40-GGFG-Dxd and 1 mg/kg FD40-LP5 were administered via tail vein injection to 8-week-old female Balb/c mice. Approximately 100 µL of blood was collected from the orbit at time points 0 min, 5 min, 30 min, 4 h, 8 h, 24 h, 48 h, 72 h, 96 h, 120 h, 168 h, and 192 h post-administeration, processed for detection and analysis.

[2] = Toxicokinetic (TK) detection in cynomolgus monkeys; type: in vivo; conditions: cynomolgus monkeys
Procedure: as §1
K2477 experiment: 2 cynomolgus monkeys (one male and one female) were administered a single intravenous infusion of 10 mg/kg FD40-GGFG-Dxd (designated as the 10 mg/kg dose group). On day 22, a second intravenous infusion of 30 mg/kg FD40-GGFG-Dxd was administered (designated as the 30 mg/kg dose group). Blood was collected from the forelimb or hindlimb veins before each dose and at 5 min, 1 h, 8 h, 24 h, 48 h, 72 h, 96 h, 120 h, 168 h, 240 h, 336 h, and 504 h after each dose to prepare serum. Pharmacokinetic detection was performed using the method described in Example 14.
K2504 experiment: 2 cynomolgus monkeys (one male and one female) were administered a single intravenous infusion of 10 mg/kg FD40-LP5 (designated as the 10 mg/kg dose group). On day 22, a second intravenous infusion of 30 mg/kg FD40-LP5 was administered (designated as the 30 mg/kg dose group). […]

HPAF-II cells = assay: Pancreatic cancer HPAF-II in vivo model (TF-Topo1 inhibitor NDC); parameters: species or system Balb/c nude mice; conditions: 10 mg/kg single dose on day 7; for tumor growth: compared to hIgG1-MMAE control group
From the text: Pancreatic cancer HPAF-II in vivo model: 5x10^6 HPAF-II cells were inoculated onto the backs of 6-week-old female Balb/c nude mice. On day 7, when the tumor volume reached ~150 mm^3, the animals were randomly grouped for treatment, with 10 tumors per group, receiving a single dose.
Similar pancreatic cancer HPAF-II in vivo model: on day 6, when the tumor volume reached ~200 mm^3, the animals were randomly grouped for treatment, with 10 tumors per group, receiving a single dose.

B1: FD40-GGFG-Dxd: TF-NDC of FD40 prepared with the known linker (GGFG-Dxd), DAR=4.0 (conjugate)
chain: QVQLVESGGGLVKPGGSLRLSCTASETISSTYIMGWHRQAPGKGRELVAVISGDGVTHYADFVKGRFTISRDNAKNTVYLQMNFLRAEDTAVYYCYAAGRWNHWGQGTMVTVSS[letters of human IgG1 Fc with C220S (EU numbers) not shown]
In the case of B1, the tumor growth (NCI-H1373 cells) is reported as “significantly inhibited tumor growth”, the “P (therapeutic effect)” value (NCI-H1373 cells; once weekly for 2 doses) is reported as 0.06 and the “mean AUC0-t” value [1] is reported as 272.88 µg·h/mL. For the same molecule, the “mean Cmax” value [1] was 16500 ng/mL, the “mean MRTlast” value [1] was 34.92 h and the “mean T1/2” value [1] was 45.56 h. For the same molecule, the “mean AUC0-t” value ([2]; 10 mg/kg intravenous administration) was 4725.19 µg·h/mL and the “mean AUC0-t” value ([2]; 30 mg/kg intravenous administration (second dose on day 22)) was 14822.3 µg·h/mL.

B2: FD40-LP1 (conjugate)
chain: QVQLVESGGGLVKPGGSLRLSCTASETISSTYIMGWHRQAPGKGRELVAVISGDGVTHYADFVKGRFTISRDNAKNTVYLQMNFLRAEDTAVYYCYAAGRWNHWGQGTMVTVSS[letters of human IgG1 Fc with C220S (EU numbers) not shown]
For B2, the tumor growth (NCI-H1373 cells) was “significantly inhibited tumor growth”, the “P (therapeutic effect)” value (NCI-H1373 cells; once weekly for 2 doses) was under 0.001 and the tumor growth (HPAF-II cells) was “significantly inhibited tumor growth”.

B3: FD40-LP6 (conjugate)
chain: QVQLVESGGGLVKPGGSLRLSCTASETISSTYIMGWHRQAPGKGRELVAVISGDGVTHYADFVKGRFTISRDNAKNTVYLQMNFLRAEDTAVYYCYAAGRWNHWGQGTMVTVSS[letters of human IgG1 Fc with C220S (EU numbers) not shown]
With B3 the “tumor suppression on day 32 (17 days after the last dose)” value (NCI-H1373 cells; once weekly for 2 doses) was “maintained excellent tumor suppression effects”, the tumor growth (NCI-H1373 cells) was “significantly inhibited tumor growth” and the “therapeutic effect compared with FD40-LP1” value (HPAF-II cells) was “superior to that of FD40-LP1”. For the same molecule, the tumor growth (HPAF-II cells) was “significantly inhibited tumor growth”.

Source: patent EP4732851A9, “LINKER, ANTIBODY-DRUG CONJUGATE, AND PREPARATION METHOD THEREFOR” (Fudan University, priority 2024, dated 2025)
